# Test results published in the supplement of paper PMC3334620.
# Whole data set: some 33,000 sequences, median “E-score (-0.5 to 0.5)” near -0.016, cut for the highest 2% near 0.31. The list shows a part of the results.
# Biological target: Cst6 (UniProt P40535)
# Experiment: PBM E-score (8-mer binding enrichment) (E-score (-0.5 to 0.5)); higher = stronger / more preferred TF binding; most listed sequences are background and not binding sites
# Settings: protein concentration: 200 nM; construct: GST-DNA-binding domain
# How it was run: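 Yeast transcription factors, full-length or as DNA-binding domains, were expressed with a GST tag using PURExpress in vitro transcription/translation. At about 100-200 nM they were applied to universal all-10-mer Agilent arrays, double-stranded by primer extension on fresh or once-stripped slides. Fluorescent anti-GST detected bound protein, and masliner normalised the scans. E-scores for ungapped eight-base words, pooled with reverse complements, came from the Universal PBM Analysis Suite.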
row,Sequence,PBM E-score
1,AGGGCAAG,-0.0177
2,ATACGATG,0.17
3,GAGCGAGC,-0.0566
4,ATGAACAC,0.105
5,GCAAAGAA,0.00218
6,AAAAATTT,0.15
7,ACGAAAAT,0.256
8,CACAGCCC,-0.181
9,GTGAAGGA,-0.0818
10,CAAACCGA,0.0213
11,ATATTCAT,0.168
12,CATACCGG,-0.0839
13,CCATCTCG,-0.136
14,CTGGTGTA,-0.0853
15,ACGATTGG,-0.0162
16,AGCGGTTA,-0.0101
17,AGGGAGCG,-0.271
18,ATGCCTTC,0.0129
19,ACCGACCA,-0.013
20,ATCAAGGA,-0.0436
21,AAAGATCA,0.138
22,ACACCTAC,-0.0999

row,Sequence,PBM E-score
1,ATGTAAAA,0.144
2,CCTTTCCC,-0.141
3,ACCGTCTC,-0.0847
4,CCGTTGAC,0.0706
5,GATTTTAA,0.186
6,ACAACAGG,-0.00954
7,CTAAAAAA,0.273
8,ATGAGTGC,0.0932
9,ATGCAAAT,0.0716
10,AACCATCA,0.0459
11,ATTCATAC,0.214
12,GCTCTACA,-0.0228
13,AGTACTAC,0.232
14,AGAGAAGC,-0.0869
15,GGCTGGCA,-0.275
16,AAAATCAG,0.116
17,CAAGGTAA,0.0213
18,ATGGATTG,0.0726
19,CTCTTATC,0.14
20,CTTATCAA,0.151
21,ACAAGGGC,-0.155
22,AGTGTAAG,-0.11

row,Sequence,PBM E-score
1,CCCTAAGG,-0.295
2,AGCGGAGA,0.12
3,TCAGTCAA,0.102
4,GATTGCGC,0.0307
5,CAGGGCGC,0.2
6,CGCGGAAC,0.139
7,GGCGACAA,-0.0515
8,ACAGCCAA,0.0206
9,AGGCGACG,0.0326
10,GGGGACCC,-0.416
11,AATCTCCT,-0.0446
12,CCCGTGAC,0.151
13,GTCGGATA,-0.064
14,ACTATATC,0.128
15,CATAGCTA,-0.114
16,ATGGAGAG,-0.0364
17,CGAGGCCA,-0.153
18,CTTTCCTA,-0.163
19,AGGTTGGA,-0.0474
20,ATCGTGTG,0.0247
21,CTGTTGAA,0.155
22,TACCCCGA,-0.0623

row,Sequence,PBM E-score
1,GTACAAAA,0.181
2,ACTCAAGG,-0.117
3,ATTTCACC,0.135
4,CAACGTTC,-0.13
5,ATATCCCA,0.0771
6,CAGTTGTA,-0.0936
7,CGTCAATC,0.337
8,AGAAGTAG,-0.0196
9,ATTTTGGC,0.166
10,ACTGGTTA,0.0197
11,ACTTTAAC,0.00978
12,ACAGGCCA,-0.202
13,CGCGGATA,0.142
14,GGTAGTCA,-0.245
15,ATCACCAG,0.116
16,ACTGAAAA,0.124
17,CTTCTCTC,-0.00992
18,ACGCCTCG,0.137
19,CTTAGCTA,-0.00204
20,AGCTACGC,0.00388
21,TAAAGAAA,0.273
22,ACGTTAGG,0.112

row,Sequence,PBM E-score
1,ACGAACGC,0.0777
2,GGAACTCA,-0.248
3,TCATGGAA,0.199
4,AGTAGCAC,-0.0285
5,AAGGATAG,-0.0331
6,CTGACCGC,-0.131
7,TCATAGGA,0.152
8,ACATGGGT,0.00268
9,ACAAGGGT,0.0183
10,CCGGAGAC,-0.0155
11,CAGAGGAC,-0.168
12,ACTAGTAT,0.172
13,ATAGAACC,-0.17
14,ACAGACCA,-0.0613
15,ACGGATCT,0.0414
16,GTATTCGA,-0.12
17,GTGGGCGA,-0.0822
18,CCATGAAA,0.139
19,CTAGCCAC,-0.244
20,GCGTTGTA,0.033
21,AGATTTTA,0.119
